Results taken from the supplement of paper PMC4604168 (melanoma cell lines).
The other results are listed elsewhere or left out. Most values come without repeats; read them as rough.

Tests used:
Experiment in all cases: cell count relative to DMSO control; melanoma cells; higher = more viable cells
Conditions in all cases: library dose: low library concentration; 72 h
[1] = test system: WM115
[2] = test system: WM1716
[3] = test system: WM1745
[4] = test system: WM3526
[5] = test system: WM3619
[6] = test system: WM451Lu
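Further: cell number obtained by counting DAPI-stained nuclei in high-throughput microscope images with image analysis software, screen run in 1,536-well plates.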

Compound	cell count [1] [%]	cell count [2] [%]	cell count [3] [%]	cell count [4] [%]	cell count [5] [%]	cell count [6] [%]
CCN(CC)CCNC(=O)c1c(C)[nH]c(/C=C2\C(=O)Nc3ccc(F)cc32)c1C [sunitinib] + COc1cc2ncnc(Nc3ccc(Oc4ccccc4)cc3)c2cc1OC [SrcI1] (first compound 0.4 µM, partner dose 2 µM)	101	146	70.7	62.6	112	93.6
COc1cc([C@@H]2c3cc4c(cc3[C@@H](O[C@@H]3O[C@@H]5CO[C@@H](C)O[C@H]5[C@H](O)[C@H]3O)[C@H]3COC(=O)[C@H]23)OCO4)cc(OC)c1O [etoposide] + CCCS(=O)(=O)Nc1ccc(F)c(C(=O)c2c[nH]c3ncc(Cl)cc23)c1F [PLX4720] (first compound 0.02 µM, partner dose 0.08 µM)	98.6	111	94.8	91.8	88.7	110
COc1cc([C@@H]2c3cc4c(cc3[C@@H](O[C@@H]3O[C@@H]5CO[C@@H](C)O[C@H]5[C@H](O)[C@H]3O)[C@H]3COC(=O)[C@H]23)OCO4)cc(OC)c1O [etoposide] + CC(C)C[C@H](NC(=O)[C@H](Cc1ccccc1)NC(=O)c1cnccn1)B(O)O [Bortezomib] (first compound 0.02 µM, partner dose 0.001 µM)	98.7	37.7	58.7	67.2	38.3	75
COc1cc([C@@H]2c3cc4c(cc3[C@@H](O[C@@H]3O[C@@H]5CO[C@@H](C)O[C@H]5[C@H](O)[C@H]3O)[C@H]3COC(=O)[C@H]23)OCO4)cc(OC)c1O [etoposide] + COc1cc2ncnc(Nc3ccc(Oc4ccccc4)cc3)c2cc1OC [SrcI1] (first compound 0.02 µM, partner dose 2 µM)	94.1	109	80.7	76.4	74.3	109
